Where a name gives a salt, the structure may show the parent alone. ± gives the standard deviation of the averaged measurements. Whole data set: some 1,900 compounds, median “normalised cell viability (NPI; 0 = phenylarsine oxide control, 1 = DMSO control)” near 1, cut for the lowest 2% near 0.039. The list shows a part of the results.
Test system: NCI-H1944
Experiment: normalised cell viability (NPI; 0 = phenylarsine oxide control, 1 = DMSO control) (fraction of DMSO control); NCI-H1944 is a non-small cell lung cancer line; higher = more viable cells (less compound toxicity)
Settings: 6 days
[1] = glucocorticoid arm: hydrocortisone 2.75 uM co-treatment, compound 1 µM
[2] = glucocorticoid arm: hydrocortisone 2.75 uM co-treatment, compound 5 µM
[3] = glucocorticoid arm: hydrocortisone 2.75 uM pre-treated 2 days and continued, compound 1 µM
[4] = glucocorticoid arm: hydrocortisone 2.75 uM pre-treated 2 days and continued, compound 5 µM
[5] = glucocorticoid arm: vehicle, compound 1 µM
[6] = glucocorticoid arm: vehicle, compound 5 µM
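Also: CTB read-out in 384-well plates, mean of triplicate wells, normalised per plate against 1 µM phenylarsine oxide and 0.1% DMSO, compounds added 24 h after seeding.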

Row | SMILES | normalised cell viability [1] | normalised cell viability [2] | normalised cell viability [3] | normalised cell viability [4] | normalised cell viability [5] | normalised cell viability [6]
1 | CC(=O)[C@]1(O)Cc2c(O)c3c(c(O)c2[C@@H](O[C@H]2C[C@H](N)[C@H](O)[C@H](C)O2)C1)C(=O)c1ccccc1C3=O [Idarubicin hydrochloride] | 0.00497 ± 0.00094 | 0.0017 ± 0.0005 | 0.00532 ± 0.0009 | 0.024 ± 0.0063 | 0.00471 ± 0.00071 | 0.00231 ± 0.00037
2 | CC(=O)[C@]1(O)Cc2c(O)c3c(c(O)c2[C@@H](O[C@H]2C[C@H](N)[C@H](O)[C@H](C)O2)C1)C(=O)c1ccccc1C3=O [Idarubicin hydrochloride; Idarubicin; 4-DMD HCl] | 0.0183 ± 0.0037 | 1.06 ± 0.026 | 0.0494 ± 0.0094 | 1.033 ± 0.0058 | 0.00163 ± 0.00068 | 1.006 ± 0.0075
3 | CN1CCN(CCCN2c3ccccc3Sc3ccc(Cl)cc32)CC1 [Prochlorperazine dimaleate] | 0.9823 ± 0.0064 | 0.9213 ± 0.0091 | 1.02 ± 0.031 | 1 ± 0.011 | 1 ± 0.0085 | 0.869 ± 0.041
4 | COCC[n+]1c2c(n(Cc3cnccn3)c1C)C(=O)c1ccccc1C2=O | 0.00685 ± 0.0014 | 0.00188 ± 0.0012 | 0.00552 ± 0.0012 | 0.0024 ± 0.00039 | 0.00736 ± 0.00083 | 0.00199 ± 0.00048
5 | O=C(NCCO)c1cccc(-c2cc(Nc3ccc(OC(F)(F)F)cc3)ncn2)c1 | 1.02 ± 0.015 | 1.06 ± 0.032 | 1.033 ± 0.0058 | 1.02 ± 0.015 | 0.9997 ± 0.0096 | 1.02
6 | Nc1ncnc2c1c(-c1ccc(Oc3ccccc3)cc1)cn2C1CCCC1 | 0.9787 ± 0.0086 | 0.825 ± 0.052 | 0.995 ± 0.017 | 1.05 ± 0.02 | 1.013 ± 0.0058 | 0.852 ± 0.015
7 | O=C(O)[C@H]1NCCC[C@H]1C(=O)O (relative stereo) [cis-Piperidine-2,3-dicarboxylic acid] | 1 ± 0.016 | 1 ± 0.022 | 1 ± 0.018 | 0.973 ± 0.0087 | 0.987 ± 0.0092 | 0.9887 ± 0.005
8 | CCC(C)N(C)C(=O)c1cc2ccccc2c(-c2ccccc2Cl)n1 (stereo not given) | 1 ± 0.024 | 1.02 ± 0.011 | 0.879 ± 0.22 | 0.9985 ± 0.0021 | 0.9953 ± 0.0045 | 1.013 ± 0.0058
9 | COc1cc2c(cc1C(F)(F)F)N(C(=O)Nc1cc(F)cc(-c3cccnc3)c1)CC2 | 0.994 ± 0.017 | 0.0391 ± 0.01 | 1.02 ± 0.01 | 0.903 ± 0.021 | 0.974 ± 0.028 | 0.00107 ± 0.00012
10 | Nc1nc2ccc(Cl)cc2c2nc(-c3ccco3)nn12 | 1.02 | 1.05 ± 0.017 | 1.01 ± 0.017 | 1.02 ± 0.026 | 1.003 ± 0.0058 | 1.007 ± 0.0058
11 | Cc1cc2c(F)c(Oc3ncnn4cc(OC[C@@H](C)OC(=O)[C@H](C)N)c(C)c34)ccc2[nH]1 | 1.013 ± 0.0058 | 1.03 ± 0.021 | 1.002 ± 0.0076 | 1.02 ± 0.016 | 1.01 | 1.03 ± 0.01
12 | C[C@@H]1COCCN1c1cc(C2(S(C)(=O)=O)CC2)nc(-c2cccc3[nH]ccc23)n1 | 0.748 ± 0.038 | 0.428 ± 0.038 | 0.888 ± 0.041 | 0.676 ± 0.045 | 0.296 ± 0.015 | 0.089 ± 0.006
13 | CCOC(=O)Nc1cc(-c2ccc(C)c(NS(C)(=O)=O)c2)nn2c(C)nnc12 [Bromosporine] | 0.95 ± 0.024 | 0.988 ± 0.047 | 0.931 ± 0.028 | 0.979 ± 0.019 | 0.9953 ± 0.0064 | 0.882 ± 0.027
14 | COc1ccc([C@@H]2CC(=O)c3c(O)cc(O)cc3O2)cc1O [Hesperetin] | 1.02 ± 0.01 | 1.03 ± 0.015 | 1.01 ± 0.016 | 1.03 ± 0.01 | 1.007 ± 0.0058 | 1.01 ± 0.011
15 | CCN(CC)CCOC(=O)C1(C2CCCCC2)CCCCC1 [Dicyclomine hydrochloride] | 0.988 ± 0.0017 | 0.914 ± 0.021 | 0.991 ± 0.018 | 0.991 ± 0.011 | 0.993 ± 0.007 | 0.9937 ± 0.0093
16 | CC(N/C(=N\C#N)Nc1ccncc1)C(C)(C)C (stereo not given) [Pinacidil] | 1.01 ± 0.011 | 0.9893 ± 0.0085 | 1.02 ± 0.029 | 0.985 ± 0.0082 | 1.003 ± 0.0064 | 1.002 ± 0.0072
17 | NC(=O)c1ccc(N(C(N)=O)c2c(F)cccc2F)nc1-c1ccc(F)cc1F | 0.873 ± 0.027 | 0.792 ± 0.017 | 0.906 ± 0.011 | 0.869 ± 0.017 | 1 ± 0.011 | 1.01 ± 0.01
18 | C[N+]1(C)CCC(OC(=O)C(c2ccccc2)c2ccccc2)CC1 [4-DAMP methiodide] | 0.9973 ± 0.0025 | 0.951 ± 0.032 | 0.9913 ± 0.0078 | 0.968 ± 0.019 | 0.9877 ± 0.0023 | 0.985 ± 0.0044
19 | Oc1cc(O)c2c(c1)O[C@H](c1ccc(O)c(O)c1)[C@@H](O)C2 [(+)-Catechin Hydrate] | 1.003 ± 0.0061 | 0.994 ± 0.028 | 1.003 ± 0.0058 | 0.998 ± 0.0014 | 0.9897 ± 0.0084 | 0.992 ± 0.01
20 | C#CC(N)CCC(=O)O (stereo not given) [gamma-Acetylinic GABA] | 0.983 ± 0.018 | 0.993 ± 0.023 | 0.987 ± 0.0052 | 0.9945 ± 0.0064 | 0.9757 ± 0.0086 | 0.9863 ± 0.0059
21 | COc1c(C)c(C(=O)c2ccc(N)c(C(=O)O)c2)n2ccccc12 | 1.02 ± 0.015 | 1.03 ± 0.011 | 1.02 ± 0.015 | 1.02 ± 0.025 | 1.013 ± 0.0058 | 1.013 ± 0.0058
22 | N=C(NC(=O)c1nc(Cl)c(N)nc1N)Nc1ccccc1 [Phenamil methanesulfonate] | 1.01 ± 0.011 | 1.04 ± 0.025 | 0.894 ± 0.22 | 1.06 ± 0.025 | 1.007 ± 0.0058 | 0.9977 ± 0.004
23 | COc1ccc2c(c1)CCC1C2CCC2(C)C(NCCCCCCN3C(=O)C=CC3=O)CCC12 (stereo not given) | 0.991 ± 0.016 | 1.01 ± 0.01 | 0.811 ± 0.34 | 0.9993 ± 0.0097 | 1.006 ± 0.0075 | 1.003 ± 0.0064
24 | COc1cc(C(=O)OCCCN2CCCN(CCCOC(=O)c3cc(OC)c(OC)c(OC)c3)CC2)cc(OC)c1OC [Dilazep dihydrochloride] | 0.9987 ± 0.0023 | 0.918 ± 0.015 | 1 ± 0.014 | 0.969 ± 0.033 | 1.013 ± 0.0058 | 1.007 ± 0.0058
25 | COc1ccc(-c2ccc3c(N4CCOC[C@@H]4C)nc(N4CCOC[C@@H]4C)nc3n2)cc1CO | 0.39 ± 0.012 | 0.292 ± 0.01 | 0.498 ± 0.013 | 0.437 ± 0.046 | 0.249 ± 0.016 | 0.164 ± 0.016

Reference: the supplement of paper PMC8285479
